{
  "source": "paper PMC10668032",
  "note": "This is one part of the list. At the low end of the ranking the order means little.",
  "data": [
    {"target": "SIX1 homeodomain (reference allele) (UniProt Q15475)", "experiment": "universal protein binding microarray", "details": "Universal all-10-mer PBM (8x60K, AMADID 030236), 300 nM GST-tagged protein, Alexa Fluor 488 anti-GST; buffer, salt, pH and temperature not stated; high values mean tight binding; most listed sequences are background and not binding sites; double strand, one strand shown", "units": {"binding signal": "E-score"}, "values": [
      {"sequence": "ATATATGC", "binding signal": 0.289},
      {"sequence": "CTCTTACC", "binding signal": -0.0714},
      {"sequence": "ACGCAGAT", "binding signal": 0.214},
      {"sequence": "GACCCGGA", "binding signal": 0.151},
      {"sequence": "ACTACGCT", "binding signal": -0.254},
      {"sequence": "GGGCCTAA", "binding signal": -0.281},
      {"sequence": "CCAGAGTC", "binding signal": -0.205},
      {"sequence": "GAATACAC", "binding signal": 0.176},
      {"sequence": "TAATAACA", "binding signal": -0.107},
      {"sequence": "CTTGCAAC", "binding signal": -0.187},
      {"sequence": "CGGTAGGA", "binding signal": 0.00923},
      {"sequence": "AGGATGAT", "binding signal": 0.305},
      {"sequence": "AGTTGATC", "binding signal": 0.23},
      {"sequence": "AGTTAACA", "binding signal": -0.0481},
      {"sequence": "CGCCTATC", "binding signal": 0.218},
      {"sequence": "CGTAGGCA", "binding signal": -0.0679},
      {"sequence": "CCGCGGCG", "binding signal": -0.0103},
      {"sequence": "CAGGTGCC", "binding signal": -0.0136},
      {"sequence": "AGGGGAGA", "binding signal": 0.0472},
      {"sequence": "AGCTTAGA", "binding signal": 0.131},
      {"sequence": "CAACGATA", "binding signal": 0.326},
      {"sequence": "AACGGAGT", "binding signal": -0.122},
      {"sequence": "AAGCTTTC", "binding signal": -0.277},
      {"sequence": "AGTTTTAC", "binding signal": 0.0471},
      {"sequence": "TATATTCA", "binding signal": 0.166},
      {"sequence": "CGTGATTC", "binding signal": -0.028},
      {"sequence": "AGTTGCAC", "binding signal": -0.06},
      {"sequence": "GGAATCCA", "binding signal": 0.0626},
      {"sequence": "AGTCTCGC", "binding signal": 0.0573},
      {"sequence": "CATGCGTC", "binding signal": -0.0298},
      {"sequence": "AGATCTTC", "binding signal": 0.169},
      {"sequence": "CCTTCTAA", "binding signal": 0.112},
      {"sequence": "GAACGGAA", "binding signal": -0.144},
      {"sequence": "CTAACCAC", "binding signal": -0.127},
      {"sequence": "CACATTTA", "binding signal": -0.218},
      {"sequence": "CAGACCTA", "binding signal": -0.238},
      {"sequence": "AACTGAGA", "binding signal": 0.07},
      {"sequence": "ATCAAGCA", "binding signal": 0.174},
      {"sequence": "GTCAAGGA", "binding signal": -0.091},
      {"sequence": "CCGGTGGA", "binding signal": -0.0286},
      {"sequence": "GGGAGACC", "binding signal": 0.0887},
      {"sequence": "GGAGGCGA", "binding signal": 0.108},
      {"sequence": "GCAAGGCC", "binding signal": -0.263},
      {"sequence": "GGATATCA", "binding signal": 0.487},
      {"sequence": "GACTACAA", "binding signal": -0.196},
      {"sequence": "ATTTTTGC", "binding signal": -0.128},
      {"sequence": "ATTCGATA", "binding signal": 0.302},
      {"sequence": "ACGATAAT", "binding signal": 0.116},
      {"sequence": "AGTAAATC", "binding signal": -0.115},
      {"sequence": "ACAGACAC", "binding signal": 0.0849},
      {"sequence": "CGCTCGTC", "binding signal": -0.0455},
      {"sequence": "AACCGGAG", "binding signal": -0.0866},
      {"sequence": "TCGGGCCA", "binding signal": -0.0576},
      {"sequence": "ATCACAGA", "binding signal": 0.262},
      {"sequence": "ACTACGTA", "binding signal": 0.0788},
      {"sequence": "GTTGATAA", "binding signal": 0.123},
      {"sequence": "ATTTATTA", "binding signal": -0.0146},
      {"sequence": "CACAAGAG", "binding signal": -0.0821},
      {"sequence": "ATCTTGCC", "binding signal": 0.033},
      {"sequence": "CCTGTTAA", "binding signal": -0.0724},
      {"sequence": "CGAGCGCC", "binding signal": -0.252},
      {"sequence": "CATGAGAA", "binding signal": 0.036},
      {"sequence": "ATGCTCCC", "binding signal": -0.0837},
      {"sequence": "CGTCCCAA", "binding signal": -0.184},
      {"sequence": "GAGGGCAA", "binding signal": -0.0619},
      {"sequence": "CGCTCCCC", "binding signal": -0.0672},
      {"sequence": "GGTCTACA", "binding signal": -0.0375},
      {"sequence": "CTCTGACA", "binding signal": 0.0184},
      {"sequence": "ACCTCTAA", "binding signal": -0.0571},
      {"sequence": "GCCCCATA", "binding signal": 0.076},
      {"sequence": "TACGCAAA", "binding signal": -0.0349},
      {"sequence": "CAGAGCAC", "binding signal": -0.0331},
      {"sequence": "CGACCACG", "binding signal": -0.178},
      {"sequence": "CGAACCTA", "binding signal": -0.0427},
      {"sequence": "ATACGGAT", "binding signal": 0.425},
      {"sequence": "CGAACTGC", "binding signal": -0.0566},
      {"sequence": "GACGAAAC", "binding signal": -0.174},
      {"sequence": "AATGGCTA", "binding signal": -0.0738},
      {"sequence": "AATAAGGT", "binding signal": -0.109},
      {"sequence": "AAACTTCC", "binding signal": -0.239},
      {"sequence": "CCGGCGAA", "binding signal": 0.0279},
      {"sequence": "ACCCCGTC", "binding signal": 0.161},
      {"sequence": "ACCGGGTC", "binding signal": 0.0882},
      {"sequence": "GCAACATA", "binding signal": 0.0234},
      {"sequence": "CCCCTAAA", "binding signal": -0.0537},
      {"sequence": "GGTGACGA", "binding signal": -0.164},
      {"sequence": "CGGGTGGA", "binding signal": 0.236},
      {"sequence": "ACAAAGAA", "binding signal": -0.205},
      {"sequence": "CCCTCCAG", "binding signal": 0.134},
      {"sequence": "GCAACGCC", "binding signal": -0.0673},
      {"sequence": "GGAAAGCA", "binding signal": -0.197},
      {"sequence": "AAATCAGT", "binding signal": -0.167},
      {"sequence": "CAAATTCA", "binding signal": -0.14},
      {"sequence": "TCGAGCCA", "binding signal": -0.0373}
    ]}
  ]
}
